Test results taken from patent US7592316B2, “Peptides as NS3-serine protease inhibitors of hepatitis C virus” (Schering Corporation, priority 2000, dated 2009).
*1 amine or outer side, *2 acyl side, *3 side chain or, on linkers, in order; H or OH if unused. Where a SMILES comes first, the peptide text is derived from it. [ ]: non-standard residue; d: D form. The star is where a group is joined. ξ: configuration not given here. Phenylacetyl(2,3,4,5,6-F5) = O=C(Cc1c(F)c(F)c(F)c(F)c1F)*; Benzoyl(2,3,4,5,6-F5) = O=C(c1c(F)c(F)c(F)c(F)c1F)*; Pro(4,4-S(CH2)3S) = O=C(O)[C@@H]1CC2(CN1)SCCCS2; ξPro(4R-SBzl) = O=C(O)C1C[C@@H](SCc2ccccc2)CN1; ξPhg(3,5-(OMe)2) = COc1cc(OC)cc(C(N)C(=O)O)c1; ξLeu(ψCOCO) = CC(C)CC(N[*:1])C(=O)C(=O)[*:2]; Acetyl(2-naphthyl) = O=C(Cc1ccc2ccccc2c1)*; Benzoyl(4-COOH) = O=C(O)c1ccc(C(=O)*)cc1; Benzoyl(2-COOH) = O=C(O)c1ccccc1C(=O)*; Pro(4,4-Me2) = CC1(C)CN[C@H](C(=O)O)C1; ξPhg(3-OMe) = COc1cccc(C(N)C(=O)O)c1; Isobutyloxycarbonyl = CC(C)COC(=O)*; ξPhg(3-Cl) = NC(C(=O)O)c1cccc(Cl)c1; Cyclopentylacetyl = O=C(CC1CCCC1)*; X4 = CCCCC(N[*:1])C(=O)C(=O)[*:2]; X46 = CSCC(N[*:1])C(=O)C(=O)[*:2]; Hyp = O=C(O)[C@@H]1C[C@@H](O)CN1; NMeChg = CN[C@H](C(=O)O)C1CCCCC1; X2 = CCCC(N[*:1])C(=O)C(=O)[*:2]; Aad = N[C@@H](CCCC(=O)O)C(=O)O; CH2CO2tBu = CC(C)(C)OC(=O)C*; Chg = N[C@H](C(=O)O)C1CCCCC1; Phg = N[C@H](C(=O)O)c1ccccc1; Tle = CC(C)(C)[C@H](N)C(=O)O; X93 = CC(C)c1ccc(CC(=O)*)cc1; ξChg = NC(C(=O)O)C1CCCCC1; ξPhg = NC(C(=O)O)c1ccccc1; Carboxymethyl = O=C(O)C*; X48 = O=C(Cc1cccc(O)c1)*; PhAc = O=C(Cc1ccccc1)*; Boc = CC(C)(C)OC(=O)*; ξNle = CCCCC(N)C(=O)O; Bn = c1ccc(C*)cc1; OtBu = CC(C)(C)O*; tBu = CC(C)(C)*

What follows are compounds tested against HCV NS3/NS4A protease (strain 1a) (Hepatitis C virus genotype 1a, UniProt P27958) (assay: biochemical). Settings: Compounds prepared by Solid Phase Synthesis, Table 3; read-out: Ki* CLASS.

Row | Compound | Ki
1 | CC(C)CC(NC(=O)[C@@H]1C[C@@H](OC(C)(C)C)CN1C(=O)[C@@H](NC(=O)c1ccc(C(=O)O)cc1)C1CCCCC1)C(=O)C(=O)NCC(=O)N[C@H](C(N)=O)c1ccccc1 (stereo partly shown) ({Benzoyl(4-COOH)}-[Chg][Hyp](tBu)[ξLeu(ψCOCO)]G[Phg]-NH2) | > 1000 nM
2 | CCCC(NC(=O)[C@@H]1C[C@@H](OCc2ccccc2)CN1C(=O)C(NC(=O)c1ccccc1C(=O)O)C1CCCCC1)C(=O)C(=O)NCC(=O)NC(C(=O)O)c1ccccc1 (stereo partly shown) ({Benzoyl(2-COOH)}-[ξChg][Hyp](Bn)[X2]G[ξPhg]-OH) | 1 to 100 nM
3 | CCCC(NC(=O)[C@@H]1C[C@@H](OC(C)(C)C)CN1C(=O)[C@@H](NC(=O)Cc1c(F)c(F)c(F)c(F)c1F)C1CCCCC1)C(=O)C(=O)NCC(=O)NC(C(N)=O)c1cccc(Cl)c1 (stereo partly shown) ({Phenylacetyl(2,3,4,5,6-F5)}-[Chg][Hyp](tBu)[X2]G[ξPhg(3-Cl)]-NH2) | 101 to 1000 nM
4 | CCCC(NC(=O)[C@@H]1C[C@@H](OCc2ccccc2)CN1C(=O)[C@H](CCCC(=O)OC(C)(C)C)NC(=O)c1ccccc1C(=O)O)C(=O)C(=O)NCC(=O)N[C@H](C(N)=O)c1ccccc1 (stereo partly shown) ({Benzoyl(2-COOH)}-[Aad](OtBu)[Hyp](Bn)[X2]G[Phg]-NH2) | > 1000 nM
5 | CCCC(NC(=O)[C@@H]1C[C@@H](OC(C)(C)C)CN1C(=O)[C@@H](NC(=O)OCC(C)C)C1CCCCC1)C(=O)C(=O)NCC(=O)NC(C(N)=O)c1cccc(OC)c1 (stereo partly shown) (Isobutyloxycarbonyl-[Chg][Hyp](tBu)[X2]G[ξPhg(3-OMe)]-NH2) | 101 to 1000 nM
6 | CCCC(NC(=O)[C@@H]1C[C@@H](O)CN1C(=O)[C@@H](NC(=O)Cc1ccccc1)C1CCCCC1)C(=O)C(=O)NCC(=O)NC(C(N)=O)c1cc(OC)cc(OC)c1 (stereo partly shown) (PhAc-[Chg][Hyp][X2]G[ξPhg(3,5-(OMe)2)]-NH2) | 101 to 1000 nM
7 | CCCCC(NC(=O)CNC(=O)C(=O)C(CCC)NC(=O)[C@@H]1C[C@@H](OCC(=O)OC(C)(C)C)CN1C(=O)C(NC(=O)Cc1cccc(O)c1)C1CCCCC1)C(N)=O (stereo partly shown) (X48-[ξChg][Hyp](CH2CO2tBu)[X2]G[ξNle]-NH2) | > 1000 nM
8 | CCCC(NC(=O)[C@@H]1C[C@@H](OC(C)(C)C)CN1C(=O)[C@@H](NC(=O)c1c(F)c(F)c(F)c(F)c1F)C1CCCCC1)C(=O)C(=O)NCC(=O)NC(C(N)=O)c1cccc(Cl)c1 (stereo partly shown) ({Benzoyl(2,3,4,5,6-F5)}-[Chg][Hyp](tBu)[X2]G[ξPhg(3-Cl)]-NH2) | > 1000 nM
9 | CCCCC(NC(=O)CNC(=O)C(=O)C(CCC)NC(=O)[C@@H]1C[C@@H](OCC(=O)O)CN1C(=O)C(NC(=O)Cc1ccc(C(C)C)cc1)C1CCCCC1)C(N)=O (stereo partly shown) (X93-[ξChg][Hyp](Carboxymethyl)[X2]G[ξNle]-NH2) | > 1000 nM
10 | CCCCC(NC(=O)CNC(=O)C(=O)C(CCC)NC(=O)[C@@H]1C[C@@H](OCC(=O)O)CN1C(=O)C(NC(=O)Cc1ccc2ccccc2c1)C1CCCCC1)C(N)=O (stereo partly shown) ({Acetyl(2-naphthyl)}-[ξChg][Hyp](Carboxymethyl)[X2]G[ξNle]-NH2) | > 1000 nM

Same assay, conditions: HCV protease continuous assay results, Table 1; read-out: Ki* Range

Row | Ki | Compound
11 | > 1000 nM | C=CCNC(=O)C(=O)[C@H](CCC)NC(=O)[C@@H]1CCCN1C(=O)[C@@H](NC(=O)C1CCCO1)C(C)C (stereo partly shown) [Example 27]
12 | > 1000 nM | C=CCNC(=O)C(=O)[C@H](CCC)NC(=O)[C@@H]1CCCN1C(=O)[C@@H](NC(=O)CC[C@H](NC(=O)OCc1ccccc1)C(=O)O)C(C)C [Example 31]
13 | 101 to 1000 nM | CCCC(NC(=O)C1CC2(CN1C(=O)[C@@H](NC(=O)OCC(C)C)C1CCCCC1)SCCCS2)C(=O)C(N)=O (stereo partly shown) [Example 328]
14 | 101 to 1000 nM | C=CCC(NC(=O)[C@@H]1[C@@H]2[C@H](CN1C(=O)[C@H](NC(=O)OC(C)(C)C)C(C)(C)C)C2(C)C)C(=O)C(=O)NCC(=O)OC (stereo partly shown) [Example 334]
15 | 1 to 100 nM | CCC[C@H](NC(=O)[C@@H]1[C@@H]2C(CN1C(=O)[C@@H](NC(=O)OCC(C)C)C(C)(C)C)[C@@H]1CC[C@@H]2C1)C(=O)C(=O)NCC(=O)NC(C(=O)N(C)C)c1ccccc1 (stereo partly shown) [Example 267]

Row | Compound | Ki
16 | CCCC(NC(=O)C1C[C@@H](SCc2ccccc2)CN1C(=O)C(NC(=O)OCC(C)C)C1CCCCC1)C(=O)C(=O)NCC(=O)NC(C(=O)N(C)C)c1ccccc1 (stereo partly drawn) [Example 160] (Isobutyloxycarbonyl-[ξChg][ξPro(4R-SBzl)][X2]G[ξPhg]-NMe2) | 1 to 100 nM
17 | CSCC(NC(=O)[C@@H]1CC2(CN1C(=O)[C@@H](NC(=O)OC(C)(C)C)C(C)(C)C)SCCCS2)C(=O)C(=O)NCC(=O)NC(C(=O)N(C)C)c1ccccc1 (stereo partly shown) [Example 238] (Boc-[Tle][Pro(4,4-S(CH2)3S)][X46]G[ξPhg]-NMe2) | 1 to 100 nM
18 | CCCC(NC(=O)[C@@H]1CC2(CN1C(=O)[C@@H](NC(=O)CC1CCCC1)C1CCCCC1)SCCCS2)C(=O)C(=O)NCC(=O)NC(C(N)=O)c1ccccc1 (stereo partly shown) [Example 110] (Cyclopentylacetyl-[Chg][Pro(4,4-S(CH2)3S)][X2]G[ξPhg]-NH2) | 1 to 100 nM
19 | CCCCC(NC(=O)[C@@H]1CC2(CN1C(=O)[C@@H](NC(=O)OCC(C)C)C(C)(C)C)SCCCS2)C(=O)C(=O)NCC(=O)NC(C(=O)OC(C)(C)C)c1ccccc1 (stereo partly shown) [Example 182] (Isobutyloxycarbonyl-[Tle][Pro(4,4-S(CH2)3S)][X4]G[ξPhg]-OtBu) | 101 to 1000 nM

Same assay, conditions: Ki* Range, HCV protease continuous assay results, Table 1

Row | Compound | Ki
20 | C=CCOC(=O)CNC(=O)C(=O)[C@H](CCC)NC(=O)[C@@H]1CCCN1C(=O)[C@@H](NC(=O)Oc1ccc(C(=O)OC)cc1)C1CCCCC1 [Example 50] | > 1000 nM

Same assay, conditions: Ki* Range, Table 5; HCV NS3/NS4A protease, 30° C., pH 6.5

Row | Compound | Ki
21 | C=CCCC(NC(=O)[C@@H]1[C@H]2[C@@H](CN1C(=O)[C@@H](NC(=O)Oc1ccccc1)C1Cc3ccccc3C1)C2(C)C)C(=O)C(=O)NCC=C (stereo partly shown) | 101 to 1000 nM

Same assay, conditions: Table 4; HCV NS3/NS4A protease, spectrophotometric assay, 30° C., pH 6.5; read-out: Ki* Range

Row | Compound | Ki
22 | CCCC(NC(=O)[C@@H]1CC(C)(C)CN1C(=O)[C@@H](NC)C1CCCCC1)C(=O)C(=O)NCC(=O)NC(C(=O)O)c1ccccc1 (stereo partly shown) (H-[NMeChg][Pro(4,4-Me2)][X2]G[ξPhg]-OH) | > 1000 nM
